# Assay results published in the supplement of paper PMC8728848.
# Some of the results follow.
# B1: CFEM-PPm (Pichia pastoris), F2QPV1 (protein)
# chain: AVATPPACLLACAAEVVKESSDCDALNNIQCICENEGSAIHACLESTCPDGLSSTALQSFEDVCE
# Legend:
# Assay in all cases: glycan array binding signal (z-score within array); higher = stronger binding
# Conditions in all cases: glycan notation: IUPAC condensed, linker removed
# [1] = target: Gal(b1-4)GlcNAc(b1-3)Gal(b1-4)GlcNAc(b1-2)Man(a1-3)[Gal(b1-4)GlcNAc(b1-3)Gal(b1-4)GlcNAc(b1-2)Man(a1-6)]Man(b1-4)GlcNAc(b1-4)[Fuc(a1-6)]GlcNAc
# In short: (§1)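 From the Consortium for Functional Glycomics database, 3228 arrays were curated, keeping only those whose protein sequence was available. Binding is given as a within-array Z-score averaged across arrays sharing a protein sequence and across linkers. Negative Z-scores can be read as non-binding.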
# [2] = target: Gal(b1-4)GlcNAc(b1-3)Gal(b1-4)GlcNAc(b1-2)[Gal(b1-4)GlcNAc(b1-3)Gal(b1-4)GlcNAc(b1-6)]Man(a1-6)[Gal(b1-4)GlcNAc(b1-3)Gal(b1-4)GlcNAc(b1-2)Man(a1-3)]Man(b1-4)GlcNAc(b1-4)GlcNAc
# In short: as §1
# [3] = target: Gal(b1-4)GlcNAc(b1-3)Gal(b1-4)GlcNAc(b1-2)[Gal(b1-4)GlcNAc(b1-3)Gal(b1-4)GlcNAc(b1-6)]Man(a1-6)[Gal(b1-4)GlcNAc(b1-3)Gal(b1-4)GlcNAc(b1-2)Man(a1-3)]Man(b1-4)GlcNAc(b1-4)[Fuc(a1-6)]GlcNAc
# In short: as §1
# [4] = target: Gal(b1-4)GlcNAc(b1-3)Gal(b1-4)GlcNAc(b1-3)Gal(b1-4)GlcNAc
# In short: as §1
# [5] = target: Gal(b1-4)GlcNAc(b1-3)Gal(b1-4)GlcNAc(b1-3)Gal(b1-4)GlcNAc(b1-2)Man(a1-3)[Gal(b1-4)GlcNAc(b1-3)Gal(b1-4)GlcNAc(b1-3)Gal(b1-4)GlcNAc(b1-2)Man(a1-6)]Man(b1-4)GlcNAc(b1-4)GlcNAc
# In short: as §1
# [6] = target: Gal(b1-4)GlcNAc(b1-3)Gal(b1-4)GlcNAc(b1-3)Gal(b1-4)GlcNAc(b1-2)Man(a1-3)[Gal(b1-4)GlcNAc(b1-3)Gal(b1-4)GlcNAc(b1-3)Gal(b1-4)GlcNAc(b1-2)Man(a1-6)]Man(b1-4)GlcNAc(b1-4)[Fuc(a1-6)]GlcNAc
# In short: as §1
# [7] = target: Gal(b1-4)GlcNAc(b1-3)Gal(b1-4)GlcNAc(b1-3)Gal(b1-4)GlcNAc(b1-2)[Gal(b1-4)GlcNAc(b1-3)Gal(b1-4)GlcNAc(b1-3)Gal(b1-4)GlcNAc(b1-6)]Man(a1-6)[Gal(b1-4)GlcNAc(b1-3)Gal(b1-4)GlcNAc(b1-3)Gal(b1-4)GlcNAc(b1-2)Man(a1-3)]Man(b1-4)GlcNAc(b1-4)[Fuc(a1-6)]GlcNAc
# In short: as §1
# [8] = target: Gal(b1-4)GlcNAc(b1-3)Gal(b1-4)GlcNAc(b1-3)Gal(b1-4)GlcNAc(b1-3)Gal(b1-4)GlcNAc(b1-2)Man(a1-3)[Gal(b1-4)GlcNAc(b1-3)Gal(b1-4)GlcNAc(b1-3)Gal(b1-4)GlcNAc(b1-3)Gal(b1-4)GlcNAc(b1-2)Man(a1-6)]Man(b1-4)GlcNAc(b1-4)GlcNAc
# In short: as §1
# [9] = target: Gal(b1-4)GlcNAc(b1-3)Gal(b1-4)GlcNAc(b1-3)Gal(b1-4)GlcNAc(b1-3)Gal(b1-4)GlcNAc(b1-2)Man(a1-3)[Gal(b1-4)GlcNAc(b1-3)Gal(b1-4)GlcNAc(b1-3)Gal(b1-4)GlcNAc(b1-3)Gal(b1-4)GlcNAc(b1-2)Man(a1-6)]Man(b1-4)GlcNAc(b1-4)[Fuc(a1-6)]GlcNAc
# In short: as §1
# [10] = target: Gal(b1-4)GlcNAc(b1-3)Gal(b1-4)GlcNAc(b1-3)Gal(b1-4)GlcNAc(b1-3)Gal(b1-4)GlcNAc(b1-2)[Gal(b1-4)GlcNAc(b1-3)Gal(b1-4)GlcNAc(b1-3)Gal(b1-4)GlcNAc(b1-3)Gal(b1-4)GlcNAc(b1-6)]Man(a1-6)[Gal(b1-4)GlcNAc(b1-3)Gal(b1-4)GlcNAc(b1-3)Gal(b1-4)GlcNAc(b1-3)Gal(b1-4)GlcNAc(b1-2)Man(a1-3)]Man(b1-4)GlcNAc(b1-4)[Fuc(a1-6)]GlcNAc
# In short: as §1
# [11] = target: Gal(b1-4)GlcNAc(b1-3)Gal(b1-4)GlcNAc(b1-3)Gal(b1-4)GlcNAc(b1-3)Gal(b1-4)GlcNAc(b1-3)Gal(b1-4)GlcNAc(b1-2)Man(a1-3)[Gal(b1-4)GlcNAc(b1-3)Gal(b1-4)GlcNAc(b1-3)Gal(b1-4)GlcNAc(b1-3)Gal(b1-4)GlcNAc(b1-3)Gal(b1-4)GlcNAc(b1-2)Man(a1-6)]Man(b1-4)GlcNAc(b1-4)GlcNAc
# In short: as §1
# [12] = target: Gal(b1-4)GlcNAc(b1-3)Gal(b1-4)GlcNAc(b1-3)Gal(b1-4)GlcNAc(b1-3)Gal(b1-4)GlcNAc(b1-3)Gal(b1-4)GlcNAc(b1-2)Man(a1-3)[Gal(b1-4)GlcNAc(b1-3)Gal(b1-4)GlcNAc(b1-3)Gal(b1-4)GlcNAc(b1-3)Gal(b1-4)GlcNAc(b1-3)Gal(b1-4)GlcNAc(b1-2)Man(a1-6)]Man(b1-4)GlcNAc(b1-4)[Fuc(a1-6)]GlcNAc
# In short: as §1
# [13] = target: Gal(b1-4)GlcNAc(b1-3)Gal(b1-4)GlcNAc(b1-3)Gal(b1-4)GlcNAc(b1-3)Gal(b1-4)GlcNAc(b1-3)Gal(b1-4)GlcNAc(b1-2)[Gal(b1-4)GlcNAc(b1-3)Gal(b1-4)GlcNAc(b1-3)Gal(b1-4)GlcNAc(b1-3)Gal(b1-4)GlcNAc(b1-3)Gal(b1-4)GlcNAc(b1-6)]Man(a1-6)[Gal(b1-4)GlcNAc(b1-3)Gal(b1-4)GlcNAc(b1-3)Gal(b1-4)GlcNAc(b1-3)Gal(b1-4)GlcNAc(b1-3)Gal(b1-4)GlcNAc(b1-2)Man(a1-3)]Man(b1-4)GlcNAc(b1-4)[Fuc(a1-6)]GlcNAc
# In short: as §1
# [14] = target: Gal(b1-4)GlcNAc(b1-3)Gal(b1-4)GlcNAc(b1-3)Gal(b1-4)GlcNAc(b1-3)Gal(b1-4)GlcNAc(b1-3)Gal(b1-4)GlcNAc(b1-3)Gal(b1-4)GlcNAc(b1-2)Man(a1-3)[Gal(b1-4)GlcNAc(b1-3)Gal(b1-4)GlcNAc(b1-3)Gal(b1-4)GlcNAc(b1-3)Gal(b1-4)GlcNAc(b1-3)Gal(b1-4)GlcNAc(b1-3)Gal(b1-4)GlcNAc(b1-2)Man(a1-6)]Man(b1-4)GlcNAc(b1-4)GlcNAc
# In short: as §1
# [15] = target: Gal(b1-4)GlcNAc(b1-3)Gal(b1-4)GlcNAc(b1-3)GalNAc
# In short: as §1
# [16] = target: Gal(b1-4)GlcNAc(b1-3)Gal(b1-4)GlcNAc(b1-3)[Gal(b1-4)GlcNAc(b1-3)Gal(b1-4)GlcNAc(b1-6)]GalNAc
# In short: as §1
# [17] = target: Gal(b1-4)GlcNAc(b1-3)Gal(b1-4)GlcNAc(b1-6)[Gal(b1-3)]GalNAc
# In short: as §1
# [18] = target: Gal(b1-4)GlcNAc(b1-3)Gal(b1-4)[Fuc(a1-3)]GlcNAc(b1-3)Gal(b1-4)[Fuc(a1-3)]GlcNAc
# In short: as §1
# [19] = target: Gal(b1-4)GlcNAc(b1-3)GalNAc
# In short: as §1
# [20] = target: Gal(b1-4)GlcNAc(b1-3)[Fuc(a1-3)GlcNAc(b1-6)]Gal(b1-4)Glc
# In short: as §1
# [21] = target: Gal(b1-4)GlcNAc(b1-3)[Gal(b1-4)GlcNAc(b1-6)]Gal(b1-4)GlcNAc
# In short: as §1
# [22] = target: Gal(b1-4)GlcNAc(b1-3)[GlcNAc(b1-6)]Gal(b1-4)GlcNAc
# In short: as §1
# [23] = target: Gal(b1-4)GlcNAc(b1-6)Gal(b1-4)GlcNAc
# In short: as §1
# [24] = target: Gal(b1-4)GlcNAc(b1-6)GalNAc
# In short: as §1
# [25] = target: Gal(b1-4)GlcNAc(b1-6)[Gal(b1-3)]GalNAc
# In short: as §1
# [26] = target: Gal(b1-4)GlcNAc(b1-6)[Gal(b1-4)GlcNAc(b1-3)]GalNAc
# In short: as §1
# Gal(b1-4)GlcNAc6P = target: Gal(b1-4)GlcNAc6P
# In short: as §1
# Gal(b1-6)Gal = target: Gal(b1-6)Gal
# In short: as §1
# Gal3S(b1-3)GalNAc = target: Gal3S(b1-3)GalNAc
# In short: as §1
# Gal3S(b1-3)GlcNAc = target: Gal3S(b1-3)GlcNAc
# In short: as §1
# [27] = target: Gal3S(b1-3)[Fuc(a1-4)]GlcNAc
# In short: as §1
# Gal3S(b1-4)Glc = target: Gal3S(b1-4)Glc
# In short: as §1
# Gal3S(b1-4)Glc6S = target: Gal3S(b1-4)Glc6S
# In short: as §1
# Gal3S(b1-4)GlcNAc = target: Gal3S(b1-4)GlcNAc
# In short: as §1
# [28] = target: Gal3S(b1-4)[Fuc(a1-3)]Glc6S
# In short: as §1
# [29] = target: Gal3S(b1-4)[Fuc(a1-3)]GlcNAc
# In short: as §1
# [30] = target: Gal3S(b1-4)[Fuc(a1-3)]GlcNAc6S
# In short: as §1
# Gal3S4S(b1-4)GlcNAc = target: Gal3S4S(b1-4)GlcNAc
# In short: as §1
# Gal3S6S(b1-4)GlcNAc = target: Gal3S6S(b1-4)GlcNAc
# In short: as §1
# Gal3S6S(b1-4)GlcNAc6S = target: Gal3S6S(b1-4)GlcNAc6S
# In short: as §1
# Gal4S(b1-4)GlcNAc = target: Gal4S(b1-4)GlcNAc
# In short: as §1
# Gal4S6S(b1-4)GlcNAc = target: Gal4S6S(b1-4)GlcNAc
# In short: as §1
# Gal6P(b1-4)GlcNAc = target: Gal6P(b1-4)GlcNAc
# In short: as §1
# Gal6S(b1-3)GlcNAc = target: Gal6S(b1-3)GlcNAc
# In short: as §1
# Gal6S(b1-3)GlcNAc6S = target: Gal6S(b1-3)GlcNAc6S
# In short: as §1
binder,measurement,setting,value
B1,glycan array binding signal (z-score),[1],-0.026
same,glycan array binding signal (z-score),[2],0.243
same,glycan array binding signal (z-score),[3],0.039
same,glycan array binding signal (z-score),[4],-0.304
same,glycan array binding signal (z-score),[5],0.512
same,glycan array binding signal (z-score),[6],-0.007
same,glycan array binding signal (z-score),[7],0.318
same,glycan array binding signal (z-score),[8],-0.09
same,glycan array binding signal (z-score),[9],-0.147
same,glycan array binding signal (z-score),[10],0.077
same,glycan array binding signal (z-score),[11],-0.171
same,glycan array binding signal (z-score),[12],-0.233
same,glycan array binding signal (z-score),[13],0.072
same,glycan array binding signal (z-score),[14],-0.026
same,glycan array binding signal (z-score),[15],-0.06
same,glycan array binding signal (z-score),[16],0.033
same,glycan array binding signal (z-score),[17],0.841
same,glycan array binding signal (z-score),[18],-0.23
same,glycan array binding signal (z-score),[19],-0.134
same,glycan array binding signal (z-score),[20],-0.264
same,glycan array binding signal (z-score),[21],-0.181
same,glycan array binding signal (z-score),[22],-0.145
same,glycan array binding signal (z-score),[23],0.25
same,glycan array binding signal (z-score),[24],0.216
same,glycan array binding signal (z-score),[25],1.67
same,glycan array binding signal (z-score),[26],0.029
same,glycan array binding signal (z-score),Gal(b1-4)GlcNAc6P,-0.302
same,glycan array binding signal (z-score),Gal(b1-6)Gal,0.461
same,glycan array binding signal (z-score),Gal3S(b1-3)GalNAc,-0.17
same,glycan array binding signal (z-score),Gal3S(b1-3)GlcNAc,-0.06
same,glycan array binding signal (z-score),[27],-0.262
same,glycan array binding signal (z-score),Gal3S(b1-4)Glc,-0.207
same,glycan array binding signal (z-score),Gal3S(b1-4)Glc6S,-0.073
same,glycan array binding signal (z-score),Gal3S(b1-4)GlcNAc,-0.129
same,glycan array binding signal (z-score),[28],0.602
same,glycan array binding signal (z-score),[29],-0.202
same,glycan array binding signal (z-score),[30],-0.065
same,glycan array binding signal (z-score),Gal3S4S(b1-4)GlcNAc,-0.292
same,glycan array binding signal (z-score),Gal3S6S(b1-4)GlcNAc,-0.253
same,glycan array binding signal (z-score),Gal3S6S(b1-4)GlcNAc6S,-0.033
same,glycan array binding signal (z-score),Gal4S(b1-4)GlcNAc,-0.296
same,glycan array binding signal (z-score),Gal4S6S(b1-4)GlcNAc,-0.256
same,glycan array binding signal (z-score),Gal6P(b1-4)GlcNAc,-0.341
same,glycan array binding signal (z-score),Gal6S(b1-3)GlcNAc,-0.06
same,glycan array binding signal (z-score),Gal6S(b1-3)GlcNAc6S,-0.081
